Laboratory results taken from the supplement of paper PMC3334620.
Over roughly 33,000 sequences, “E-score (-0.5 to 0.5)” has its median near -0.011; the highest 2% begin near 0.28. The list shows a part of the results.

target: T1, Gcr1 (UniProt P07261); assay: PBM E-score (8-mer binding enrichment) (E-score (-0.5 to 0.5)); higher = stronger / more preferred TF binding; most listed sequences are background and not binding sites; details: protein concentration: 100 nM; construct: GST-full length
T1 sequence: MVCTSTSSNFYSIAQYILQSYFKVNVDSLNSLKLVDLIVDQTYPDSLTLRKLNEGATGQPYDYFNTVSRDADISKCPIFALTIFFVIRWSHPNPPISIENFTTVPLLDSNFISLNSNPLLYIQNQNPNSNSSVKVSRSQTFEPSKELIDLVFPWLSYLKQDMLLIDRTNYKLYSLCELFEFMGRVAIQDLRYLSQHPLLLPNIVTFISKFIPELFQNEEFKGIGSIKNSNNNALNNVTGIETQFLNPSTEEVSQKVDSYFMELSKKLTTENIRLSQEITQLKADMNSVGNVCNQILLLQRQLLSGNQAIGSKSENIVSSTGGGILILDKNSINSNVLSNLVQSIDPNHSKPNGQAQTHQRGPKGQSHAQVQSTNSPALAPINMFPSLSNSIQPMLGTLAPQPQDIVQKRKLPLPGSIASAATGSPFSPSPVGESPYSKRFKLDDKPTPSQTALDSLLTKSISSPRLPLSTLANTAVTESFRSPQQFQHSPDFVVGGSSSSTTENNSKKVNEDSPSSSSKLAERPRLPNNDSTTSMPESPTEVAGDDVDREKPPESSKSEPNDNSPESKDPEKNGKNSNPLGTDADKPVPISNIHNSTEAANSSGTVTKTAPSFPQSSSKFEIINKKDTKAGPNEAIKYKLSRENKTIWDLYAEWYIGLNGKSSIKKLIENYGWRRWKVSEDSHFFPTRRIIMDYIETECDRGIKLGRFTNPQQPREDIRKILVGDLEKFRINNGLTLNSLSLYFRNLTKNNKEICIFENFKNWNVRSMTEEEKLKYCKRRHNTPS
Experimental: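 Universal 'all 10-mer' protein binding microarrays (Agilent AMADID 015681) probed with GST-tagged S. cerevisiae TFs (full-length or DBD) made by in vitro transcription/translation (PURExpress), about 100-200 nM. Bound TF was detected with fluorescent anti-GST. Each ungapped 8-mer (which stands for itself and its reverse complement) is scored by the PBM enrichment score (E-score), a modified Wilcoxon-Mann-Whitney statistic from -0.5 to +0.5, computed with the Universal PBM Analysis Suite. Scale: above 0.35 generally sequence-specific binding.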

Sequence	PBM E-score
AGCACCGC	-0.0299
AATCAAGG	-0.0103
CTAGCAGA	-0.199
CCCAAGTA	0.0271
CCCGGCAC	-0.0516
GTACGCAA	-0.126
CTGAGGGA	-0.211
GCAGTTTA	0.0599
GTCAAGAA	0.0018
ATTGTGAC	0.0102
ATTTAAAA	0.115
AGAGTCTA	-0.0227
CGCACACG	-0.00991
GGGACCTA	0.0741
CGCTTTGC	-0.0972
GTCTTCTA	-0.0212
CACACGCC	0.029
CTAATTCC	0.134
AGTCACGG	-0.224
AGGCGCAT	0.0287
ATCGAGAA	0.178
CACCTAAA	0.266
AAGCAGTA	0.00562
GCGTAGCC	-0.123
CATGGTCA	-0.159

Sequence	PBM E-score
CGAGATCC	-0.00997
ACAAGCTG	0.106
AGGAGGTG	-0.0889
CAAGCGCG	-0.0724
GGCTAATA	0.0287
AGAAAGGG	-0.0747
AGACTTGC	-0.18
CGGATCCC	0.341
ACGCGTCC	0.292
AGCATTTA	0.151
CTGGCAGC	0.386
CTGGCCGA	-0.156
ACAATGGC	-0.103
GTACTGAA	-0.0112
ACCGCCAT	-0.181
AAGCCCAC	0.0131
CTTCGCCA	-0.0437
CAATCATC	-0.0981
GCGAGACA	-0.115
AGTTCTGG	0.0689
CAATCATG	-0.0813
ACCATGCA	0.146
GATTCGCA	0.267
CCTAAGGC	-0.124
GACCCGAA	0.0929

Sequence	PBM E-score
GATAGGCC	-0.131
GATTACCC	-0.306
CAAAATCG	-0.0703
ACGTCCCG	0.0111
CAGCAGAG	0.0348
AAGCGTCC	0.323
AGATATGC	-0.127
CTTTACAC	0.122
GCTGGCCC	-0.178
ATAACTCC	-0.0323
AAATCCTC	-0.28
TCGTTGAA	-0.127
ACTTGTGC	-0.114
CAAAGAGA	-0.055
AAAAGTCA	-0.058
CGCTAAAG	-0.0429
AAGGTACA	0.0281
ATATTCCA	0.17
CATCCCAG	-0.0404
ATGGTCAA	-0.115
CGCAGACA	-0.0735
CATAGTGA	-0.135
GGATGCCC	0.464
ACCGAGCT	-0.0772
CTAGGTAC	-0.0583

Sequence	PBM E-score
CATATACA	0.0529
GCGCTGAC	-0.0643
CTATTTTC	0.052
CGAGGAAA	0.0716
ATGACGGC	0.0302
CTGCACCC	0.0757
ACGATTGC	-0.0169
ACTTAATC	-0.026
GTCAGTCA	0.0683
CTGTATAC	0.0309
GTCACCTA	-0.00909
AGCCTAGG	-0.254
ACCTTAAA	0.156
AATTCGGT	0.177
AGGTTTTC	0.0618
ACAGATAC	0.0779
GTACAGCA	-0.0358
ATACACAT	0.1
GGCATCAC	-0.0242
GGTATCAC	-0.165
ATCGGTCA	-0.247
CATTATCG	0.0454
CTGGTGAA	-0.0514
ACGGAACC	0.0697
CTACGTAC	0.0519

Sequence	PBM E-score
ACAAGGAT	0.00092
GAATAATA	0.185
GACGGTTA	-0.0821
CCGCTATC	0.131
CTCTGCAC	-0.0576
AATACGCC	-0.0501
AAAGCACT	-0.195
GGATTTGA	-0.111
CGTCCCCA	0.109
CCTATACA	0.198
CCATCGCC	-0.0991
CACGGTGC	0.131
ACGGGGGA	-0.063
ACGACCCG	-0.115
GGGAATAA	0.147
ATAAAAAG	0.128
AAAGCGAC	0.0124
ATCGCATG	-0.36
GCGAGCGA	0.0461
ACCCTCAG	-0.0384
AATGTGGC	0.13
AAGATACT	0.158
AATAGATT	0.0676
CGATTAAG	0.0904
CACCCTAG	0.0455

Sequence	PBM E-score
ACGACAGC	-0.112
CGTATAAG	0.147
ATCTGACG	-0.243
ATAATGTG	0.194
ACAGTTAA	-0.045
ACGCCCTA	0.178
AGCCGTGA	0.11
AGTTGCGG	0.177
GAAAACAC	-0.0836
AGTCAACG	-0.158
AGTTAATC	0.0377
ATGGAACG	-0.0103
CTTAGTAC	0.019
AGAGGTGA	-0.044
ATCCAGAC	0.0146
GCACCAAA	0.201
GTAAACTA	0.0139
GCCGCTCA	0.0602
GCACCAGC	0.0635
CGGCCCTA	-0.253
CCAAGTTC	0.12
GTGTTCCA	0.112
ATTAGGAC	0.104
TCTTACAA	-0.0892
GTTAATCA	0.0578

Sequence	PBM E-score
ACGGGAGG	-0.0387
CAACGAAA	0.0915
GCCCGGGA	0.129
CCCCGCGC	0.022
CTATGGGC	-0.0362
ATCGGCAC	0.0146
ACCACCCT	-0.114
AACACTTC	-0.0457
CTCCCACA	0.201
GCTTGTCA	-0.19
ACACGGGA	-0.151
AACCGACA	-0.00674
CAATTTGG	0.222
CGTACCGC	-0.162
AAATGGAG	0.016
GGCCTTCA	0.00737
CACGTATG	-0.182
CGGAATCA	0.0684
CAGGCAAC	-0.076
CATAACTC	0.0172
AATATACG	0.257
GCAATAAA	0.206
CGTGTCGA	-0.121
AGCCTACC	-0.167
AAGCATAT	0.015

Sequence	PBM E-score
AACCTTCA	-0.145
AGGAGTTG	0.0863
CAAAGCCC	-0.32
ACGTGGAC	-0.129
CGGCTAGA	-0.00491
ACCGGACA	-0.182
TACTCCCA	0.0425
CGCATATC	-0.0076
CAGGCTAC	0.00714
CTGGTCAC	-0.243
CCACACCC	0.019
CATGATCG	-0.161
GCCCCAGA	0.0891
AAGTCTAC	0.0258
CCGCACTC	-0.121
ATAAATTC	-0.0132
AACAAGGT	0.0443
CGCTTCGC	-0.00886
AAGTTCAC	0.00847
CAACTCCC	-0.175
CCGAGAAG	0.209
CCGACAAA	-0.0267
AGTTCACG	-0.161
CCTGGCGC	-0.0793
CCTGTCTA	0.0224

Sequence	PBM E-score
CCGCTCGA	-0.284
AACCGAAC	0.091
CGCAAGTA	-0.0406
ATAGTGTC	0.0171
CGGTGAGC	-0.0162
AGCTAGTG	0.0791
GTTAAGAA	0.0146
ATTCACGG	-0.14
CCTCGTGA	-0.101
GCGGAGAA	-0.176
TGTTATAA	0.13
AATGGACA	0.0759
CCCTGTAC	-0.0614
AACCCAAT	0.0924
CAACCCAC	0.0361
ATTTCTTG	0.0771
CATCATGC	0.066
AAGCGGAA	0.209
GTAAGCCA	0.0101
ATCCATCC	-0.153
ACAAGGTC	-0.199
AAGTCCAT	-0.156
GACGCAAC	0.0918
CCTCGAAC	0.0863
CTCTCGGA	0.0485

Sequence	PBM E-score
CATCACCG	-0.184
CGGATCTC	-0.23
TCTGAAAA	0.235
CATATAAA	0.208
GAGCCACC	0.0883
ATGCAAAA	0.067
GCACTTCA	-0.0668
GAGTTACA	-0.0793
ATATTCTC	-0.0679
CATATGAC	-0.0287
CCCATCCG	-0.101
CATTATGC	-0.0741
AGTGAAAC	-0.14
CCCATATA	0.0585
GGGACACA	-0.0586
CGCGCGCG	-0.0507
ATACTCGA	0.13
CTGTAGAC	-0.0134
TTACACAA	0.164
CTGGATTA	0.246
TCGCTGCA	-0.16
ACATGGGC	-0.104
CGCTGTAC	-0.0548
ACCCTTCT	0.101
TCCGCTAA	0.146

Sequence	PBM E-score
CGCCGTCA	-0.0681
AACGTAGC	0.0816
ATGACTTA	0.114
GCTGCTCC	0.17
GAGCGCGA	-0.0373
CACGGAAG	-0.115
ATTTACGA	0.182
GAGTGATC	-0.0286
ATCTGACC	-0.0988
AGCGTGAA	-0.0232
AGGTCCTC	-0.0446
GCTGGGCA	-0.0255
TAGGCAGA	-0.0541
CATCATCG	-0.00596
CCACCTAG	0.0499
ACCAACTA	0.215
TCCGGAGA	-0.041
AAGACCGC	-0.0754
CGCGTTAG	-0.0287
ACCTATGC	-0.193
ACGTCTTC	0.0646
CCCAGCCA	-0.298
ATGTCTAG	-0.166
CCTCGGTA	-0.131
ATACGTGA	-0.0634

Sequence	PBM E-score
GATGGTGC	0.0422
AGGTGCTA	0.231
ATGAACTA	-0.0707
ATATGAAT	0.181
CCCGTTAG	0.0113
AGGCCGGC	-0.0562
TATTTTAA	0.219
CCCATCAG	-0.0935
CGGCATAG	-0.058
ACCCCAGC	0.145
CCCGACAG	-0.19
ATTACGAA	0.192
ACGCAAAC	0.00398
CAAAATCA	0.0854
GCTCCCGA	0.122
CGAGGTCA	0.171
AAGAGTAC	-0.0794
CCGCGCCC	0.153
AATAGAGC	-0.107
GGCCCGGA	0.0323
GTCTTGGA	0.0347
CGTATGGC	-0.11
TCTCAAGA	0.146
AACGCAAT	0.129
AAGCATCA	-0.0253

Sequence	PBM E-score
ACCACTTC	0.234
ACTTGCGC	0.0925
CCATTCTC	0.0511
AGCTGCGC	-0.0402
TAAATCTA	0.138
AGGGAAGG	-0.218
ATAGTACA	0.0554
CGGTGTAG	-0.0962
AGGACCAA	-0.0896
CATAAAAG	-0.0258
CCACCTAC	-0.158
AACTCCAA	-0.093
CAACAAGA	0.0034
AGGAGTAG	0.169
AGATAGGA	-0.019
ACATCGAA	-0.265
CGTTTCTC	-0.113
CGCCCCAA	0.139
GCTGTCCC	-0.132
GAGTTCCA	0.123
AGCGTGCC	-0.142
CTCAGTAC	-0.133
ACTGGCTA	0.00213
CCTCTGTC	-0.0698
CACGTAAA	0.0736

Sequence	PBM E-score
GACGTCAC	-0.169
AAAAGGAT	-0.00496
ACCATAAC	0.0527
AGAAACAC	0.0738
CCCGCTAC	0.0999
ACTTACAT	-0.127
ACTCTTTG	0.00433
TCGGGCCA	-0.184
AACTCACA	-0.0268
CCAACCAC	-0.0292
CTAAGAAA	-0.0424
AGCTGCAC	-0.112
GACTCCAC	0.16
ACTACCCT	-0.11
ACCCTTAA	-0.111
ACCAACAC	0.0251
CCGTCCAA	0.13
AGGATCGC	0.198
CGAGTACA	0.01
